Laboratory results as given in the supplement of paper PMC10441789.
Some of the results follow. Antibody binding of pooled human sera (four to six donors per pool; dilution not stated) to peptides of the Trypanosoma cruzi antigen TSSA on microarrays. Quantile-normalised fluorescence in arbitrary units, mean of duplicate arrays; higher = more binding. No active / inactive call. The uninfected pools are read here as the healthy donors of the same country. The strongest signals lie near the top of the scale (about 60,000).

Experiments:
Assay in all cases: antibody binding signal (normalised fluorescence) (arbitrary fluorescence units); higher = stronger serum antibody binding to peptide
[1] = test system: pooled sera of chronic Chagas disease patients, Argentina
Experimental: (§1)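 Microarray of 15-residue peptides over residues 30-55 of Trypanosoma cruzi TSSAII, each with 1 to 10 substitutions at naturally variable positions, probed with one serum pool per country.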

[2] = test system: pooled sera of chronic Chagas disease patients, Bolivia
Experimental: as §1

[3] = test system: pooled sera of chronic Chagas disease patients, Brazil
Experimental: as §1

[4] = test system: pooled sera of chronic Chagas disease patients, Colombia
Experimental: as §1

[5] = test system: pooled sera of chronic Chagas disease patients, Mexico
Experimental: as §1

[6] = test system: pooled sera of chronic Chagas disease patients, USA
Experimental: as §1

[7] = test system: pooled sera of uninfected people, Argentina
Experimental: as §1

[8] = test system: pooled sera of uninfected people, Bolivia
Experimental: as §1

[9] = test system: pooled sera of uninfected people, Brazil
Experimental: as §1

[10] = test system: pooled sera of uninfected people, Colombia
Experimental: as §1

[11] = test system: pooled sera of uninfected people, Mexico
Experimental: as §1

[12] = test system: pooled sera of uninfected people, USA
Experimental: as §1

Sequence	antibody binding signal [1]	antibody binding signal [2]	antibody binding signal [3]	antibody binding signal [4]	antibody binding signal [5]	antibody binding signal [6]	antibody binding signal [7]	antibody binding signal [8]	antibody binding signal [9]	antibody binding signal [10]	antibody binding signal [11]	antibody binding signal [12]
TDKKTAAGETPSQPG	557	2250	25800	312	245	1600	110	363	398	781	175	139
GKDKKAAAGGAPSQS	227	197	165	2090	731	421	113	93.6	99.3	96.9	83	91.3
NKPATGGTPSQSGAS	563	563	3580	382	510	402	767	1420	582	472	736	1210
KAATGEAPSPSGASS	20200	18200	27700	168	2400	20500	235	108	121	114	89	208
TISTPPSGKDKKPAT	24500	1910	3750	311	52000	611	200	375	217	170	149	159
PSGTDNKPATGEAPS	48800	42900	49400	1920	409	41800	1090	992	683	360	385	210
KDKKAATGETPSQPG	1360	287	19300	116	162	7410	199	109	98.6	219	89.9	110
NKPATGGTPSQPGAS	514	835	19300	519	386	713	684	1390	895	580	662	1390
KENKAAAGGAPSPSG	131	192	208	1210	149	364	161	73.1	86.7	116	89.3	110
KKAATGETPSPSGAS	330	247	4660	164	230	6530	423	200	98.5	198	77.2	387
SGTDKKTAAGEAPSQ	286	10100	8770	2470	323	6870	180	227	319	579	245	113
GKENKTAAGETPSQS	4630	810	11200	7460	7670	17600	471	212	161	201	207	207
ISTPPSGTDKKTATG	30500	13600	29500	6200	35600	4070	372	128	211	209	902	185
GKDNKAATGEAPSPS	28800	17600	31800	10000	10400	27000	272	298	113	392	85.3	116
GTENKPATGGTPSPS	43700	8000	7410	423	1670	816	430	1830	882	523	287	167
TPPSGKDNKTAAGGA	1050	325	1530	1980	18400	3010	1060	483	206	247	105	303
SGTEKKAATGETPSQ	2270	2310	14900	286	327	10600	632	432	221	693	149	213
TENKPAAGGTPSQPG	43800	1080	9240	1510	763	1890	293	573	804	522	542	212
GKEKKAAAGEAPSPP	4340	377	1570	5120	5630	9740	141	85.7	81.9	88.1	78.5	104

Sequence	antibody binding signal [1]	antibody binding signal [2]	antibody binding signal [3]	antibody binding signal [4]	antibody binding signal [5]	antibody binding signal [6]	antibody binding signal [7]	antibody binding signal [8]	antibody binding signal [9]	antibody binding signal [10]	antibody binding signal [11]	antibody binding signal [12]
PSGKENKTAAGETPS	10200	3650	10600	9380	9070	9240	7190	3710	252	923	661	282
TDKKTAAGGTPSQSG	1620	248	431	11300	441	1820	277	98.8	905	173	500	175
KEKKAAAGETPSPPG	149	208	197	178	135	781	123	95.3	86.1	97.2	88.5	206
PPSGTEKKTAAGETP	18600	8540	14000	580	1340	2470	636	387	326	485	238	209
GKDKKTAAGETPSPS	523	287	191	909	700	1490	138	149	87.4	211	140	437
PSGKENKPATGETPS	36900	20200	32800	3270	4810	29400	7800	4470	437	801	2010	324
DKKPATGGAPSPPGA	1400	942	1200	2580	997	2480	447	996	159	159	153	156
KKPAAGEAPSPSGAS	200	326	2740	166	189	11900	342	246	96.5	125	69.5	484
PPSGTEKKTATGEAP	28400	25600	17800	542	1530	20000	807	277	435	192	309	239
GTDKKAATGGAPSPS	787	308	504	3100	1030	1140	333	642	119	433	122	148
TSSTPPSGTDKKAAT	34400	5830	36700	8180	40900	6520	706	134	160	215	1450	239
TSSTPPSGTENKPAA	47400	42100	47800	1630	5530	38100	7810	1620	899	919	724	982
GKDNKPAAGETPSPP	843	268	16800	1060	1580	3840	298	809	136	228	442	356
KENKTATGGTPSQSG	258	347	294	671	284	390	366	103	146	105	219	146
GTENKTAAGGTPSPP	32600	538	578	4490	843	1640	318	290	687	407	2010	153
TPPSGTEKKTATGGT	25900	1380	21300	471	7950	2250	784	296	1280	136	132	167
TSSTPPSGKDKKTAT	21500	653	1440	210	41100	770	152	255	117	107	92.7	93.4
TPPSGKEKKPATGET	17800	474	3270	744	24800	1320	719	1360	136	526	1290	1020
